From the supplement of paper PMC3334620
The full ranking holds about 33,000 sequences; the median of “E-score (-0.5 to 0.5)” is about -0.017, and the highest 2% start at about 0.3. The list shows a part of the results.

target: T1, Sut1 (UniProt P53032); assay: PBM E-score (8-mer binding enrichment) (E-score (-0.5 to 0.5)); higher = stronger / more preferred TF binding; most listed sequences are background and not binding sites; settings: protein concentration: 200 nM; construct: GST-full length
T1 sequence: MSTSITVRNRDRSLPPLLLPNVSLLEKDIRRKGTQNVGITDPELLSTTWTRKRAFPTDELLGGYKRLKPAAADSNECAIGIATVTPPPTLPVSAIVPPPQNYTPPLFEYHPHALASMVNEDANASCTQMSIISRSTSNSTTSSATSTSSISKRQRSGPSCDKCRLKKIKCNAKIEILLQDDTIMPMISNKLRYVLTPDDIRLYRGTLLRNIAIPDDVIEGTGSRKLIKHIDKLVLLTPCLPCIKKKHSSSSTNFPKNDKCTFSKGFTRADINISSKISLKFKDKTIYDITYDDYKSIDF
Method in brief: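 Full-length yeast transcription factors or their DNA-binding domains, GST-tagged and expressed with PURExpress, were applied at about 100-200 nM to universal all-10-mer Agilent arrays. These arrays had been made double-stranded by primer extension on fresh or once-stripped slides. Detection used fluorescent anti-GST, normalisation used masliner, and E-scores for ungapped eight-base words pooled with reverse complements came from the Universal PBM Analysis Suite.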

First: AACAGATA
Second: ATCGAGTC
The “PBM E-score” value of the first is higher: 0.155 for the first, 0.0272 for the second.

First: CTGCTGTC
Second: CAGTGGGG
The “PBM E-score” value of the first is higher: -0.0435 for the first, -0.381 for the second.

Compared with GAGGAAAC, TAAATCGA is higher in “PBM E-score” value: -0.0262 for the first, 0.149 for the second.

Going from ACCAGGCC to CCCGCTAA, the “PBM E-score” value falls from -0.123 to -0.246.

Going from CAAAGCCA to GGGTACCC, the “PBM E-score” value falls from -0.0132 to -0.155.

First: CATACATC
Second: CCCAGCAC
The “PBM E-score” value of the first is higher: -0.0196 for the first, -0.27 for the second.

Going from AATACTGG to GCGTCCTA, the “PBM E-score” value falls from -0.0585 to -0.336.

First: CCCGGCCG
Second: CGTAAAGA
The “PBM E-score” value of the first is lower: -0.0961 for the first, 0.103 for the second.

Compared with CTGCTAGA, CAGACCCA is lower in “PBM E-score” value: 0.00847 for the first, -0.221 for the second.

Compared with CATATCAG, GATTGCGA is higher in “PBM E-score” value: 0.0554 for the first, 0.0896 for the second.

First: AGATTCTG
Second: CGGTTGAC
The “PBM E-score” value of the first is lower: -0.15 for the first, 0.0738 for the second.

Going from ACGCCAGA to CAAGCTAA, the “PBM E-score” value rises from -0.218 to -0.0565.

First: AGACTCCG
Second: ATACGGGA
The “PBM E-score” value of the first is higher: 0.47 for the first, -0.218 for the second.

Going from CGATTGAC to CCTATATA, the “PBM E-score” value rises from -0.0081 to 0.091.

Going from ACCCGACA to CAACTTCG, the “PBM E-score” value rises from -0.112 to 0.0403.

Going from AATATTTG to AGCGTCCA, the “PBM E-score” value falls from 0.22 to -0.07.

Compared with CTTCCTGA, CGCGGTGC is lower in “PBM E-score” value: -0.0817 for the first, -0.164 for the second.

First: AAACAGTG
Second: ATCCACAT
The “PBM E-score” value of the first is lower: -0.0323 for the first, 0.166 for the second.

Compared with AGGGGAGG, ACGGCTTA is higher in “PBM E-score” value: -0.287 for the first, -0.0811 for the second.

Going from CGCACACC to AACTAGAG, the “PBM E-score” value rises from -0.178 to 0.0891.

Going from TGACTGAA to ATCTACCG, the “PBM E-score” value rises from -0.163 to 0.231.

Compared with AGACACGA, ACAATCTA is higher in “PBM E-score” value: -0.0814 for the first, 0.0253 for the second.

Going from GGGATGCA to GCTTAGCC, the “PBM E-score” value falls from -0.101 to -0.129.

Going from CATCTGGG to GACTCGCC, the “PBM E-score” value rises from -0.245 to -0.158.

Compared with GATACTCA, CCGAGTGA is higher in “PBM E-score” value: 0.145 for the first, 0.153 for the second.

First: ACTAGAGG
Second: ATCACTCA
The “PBM E-score” value of the first is lower: -0.0643 for the first, -0.0276 for the second.

First: GATCTAAA
Second: GGGAGCGA
The “PBM E-score” value of the first is higher: 0.0474 for the first, -0.287 for the second.

First: TTAGGCAA
Second: CCATACGG
The “PBM E-score” value of the first is higher: 0.0414 for the first, -0.0064 for the second.

Compared with ACAACACG, AGATTTAT is higher in “PBM E-score” value: -0.0103 for the first, 0.217 for the second.

First: GGGGACGA
Second: AACATAAA
The “PBM E-score” value of the first is lower: -0.0278 for the first, 0.0937 for the second.

Going from AATTACAA to AACGCACT, the “PBM E-score” value falls from 0.175 to 0.0273.

Compared with CTGGGACA, CCGGCTAA is higher in “PBM E-score” value: -0.306 for the first, 0.153 for the second.

First: GTAGCGCA
Second: GCGTATTA
The “PBM E-score” value of the first is lower: -0.0393 for the first, 0.156 for the second.

Compared with TAGCGCAA, GGCAAGCC is lower in “PBM E-score” value: -0.00527 for the first, -0.15 for the second.

Compared with AAACTTCT, AATTTGTG is lower in “PBM E-score” value: 0.262 for the first, 0.0995 for the second.

Compared with AAGGACAA, ACTCCCTA is lower in “PBM E-score” value: 0.0597 for the first, -0.192 for the second.

First: CGGCTTAG
Second: CCTAACAC
The “PBM E-score” value of the first is lower: -0.066 for the first, 0.0782 for the second.

Going from ACGGTCTC to AGTACGCC, the “PBM E-score” value falls from 0.00199 to -0.0977.

First: GGGTAGTA
Second: CACATCAG
The “PBM E-score” value of the first is lower: -0.0886 for the first, -0.0654 for the second.

Going from ATTAGTCG to GAAGTCCA, the “PBM E-score” value rises from -0.00629 to 0.0321.

First: CCATCGCG
Second: GCATTTAA
The “PBM E-score” value of the first is lower: 0.117 for the first, 0.162 for the second.

Compared with CCGAGCAC, AGAAGGCA is lower in “PBM E-score” value: -0.00901 for the first, -0.0832 for the second.

Compared with GTCGTCGA, CACCCGAA is higher in “PBM E-score” value: -0.244 for the first, 0.107 for the second.

Going from AATGCCGA to AGCGCCGC, the “PBM E-score” value falls from 0.0757 to -0.17.

Compared with ACGAAATG, AGCAGAGA is lower in “PBM E-score” value: -0.0185 for the first, -0.0999 for the second.

Going from GGCGAAAA to ACGTAGGA, the “PBM E-score” value falls from 0.138 to 0.0207.

First: CTTTAGAA
Second: ACGCTGTA
The “PBM E-score” value of the first is higher: 0.199 for the first, -0.0391 for the second.

First: CTATAATC
Second: CTGCCGCA
The “PBM E-score” value of the first is higher: 0.0817 for the first, -0.236 for the second.

First: TAACTATA
Second: GCGGCAGC
The “PBM E-score” value of the first is higher: 0.178 for the first, -0.221 for the second.

First: GCCCAGGA
Second: AATCGAAT
The “PBM E-score” value of the first is lower: -0.187 for the first, 0.135 for the second.

First: GACTAGCA
Second: GGAGAGAC
The “PBM E-score” value of the first is lower: -0.0601 for the first, 0.125 for the second.

Going from ATAAAGAT to ACTTAGAC, the “PBM E-score” value falls from 0.328 to 0.174.

Compared with GCCCTACA, AGCTTGTA is higher in “PBM E-score” value: -0.0427 for the first, 0.058 for the second.

Going from ACTGTAAG to ACTTAAAT, the “PBM E-score” value falls from 0.189 to 0.169.

In the case of CGCCCACC, the “PBM E-score” value is reported as -0.181.
